Results from the supplement of paper PMC8728848.
This is one part of the list.

How the values were obtained:
Test in all cases: glycan array binding signal (z-score within array); higher = stronger binding
Details in all cases: glycan notation: IUPAC condensed, linker removed
[1] = biological target: GlcNAc(b1-4)GlcNAc(b1-4)GlcNAc(b1-4)GlcNAc(b1-4)GlcNAc
Outline: (§1)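 Columns mapping to the same glycan were averaged after glycan names were converted to IUPAC-condensed notation. The data come from 3228 arrays in the Consortium for Functional Glycomics database, limited to those with an available protein sequence. Binding is reported as a within-array Z-score averaged across arrays of one protein sequence and across linkers.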

[2] = biological target: GlcNAc(b1-4)GlcNAc(b1-4)GlcNAc(b1-4)GlcNAc(b1-4)GlcNAc(b1-4)GlcNAc
Outline: as §1

[3] = biological target: GlcNAc(b1-4)[GlcNAc(b1-6)]GalNAc
Outline: as §1

[4] = biological target: GlcNAc(b1-6)Gal(b1-4)GlcNAc
Outline: as §1

GlcNAc(b1-6)GalNAc = biological target: GlcNAc(b1-6)GalNAc
Outline: as §1

[5] = biological target: GlcNAc6S(b1-3)Gal(b1-4)GlcNAc
Outline: as §1

Kdn(a2-3)Gal(b1-3)GalNAc = biological target: Kdn(a2-3)Gal(b1-3)GalNAc
Outline: as §1

Kdn(a2-3)Gal(b1-3)GlcNAc = biological target: Kdn(a2-3)Gal(b1-3)GlcNAc
Outline: as §1

Kdn(a2-3)Gal(b1-4)Glc = biological target: Kdn(a2-3)Gal(b1-4)Glc
Outline: as §1

Kdn(a2-3)Gal(b1-4)GlcNAc = biological target: Kdn(a2-3)Gal(b1-4)GlcNAc
Outline: as §1

[6] = biological target: Kdn(a2-3)Gal(b1-4)[Fuc(a1-3)]GlcNAc
Outline: as §1

Kdn(a2-6)Gal(b1-4)GlcNAc = biological target: Kdn(a2-6)Gal(b1-4)GlcNAc
Outline: as §1

[7] = biological target: Man(a1-2)Man(a1-2)Man(a1-3)Man
Outline: as §1

[8] = biological target: Man(a1-2)Man(a1-2)Man(a1-6)[Man(a1-3)]Man
Outline: as §1

Man(a1-2)Man(a1-3)Man = biological target: Man(a1-2)Man(a1-3)Man
Outline: as §1

[9] = biological target: Man(a1-2)Man(a1-3)[Man(a1-2)Man(a1-6)]Man
Outline: as §1

[10] = biological target: Man(a1-2)Man(a1-3)[Man(a1-2)Man(a1-6)]Man(a1-6)[Man(a1-2)Man(a1-2)Man(a1-3)]Man
Outline: as §1

[11] = biological target: Man(a1-2)Man(a1-3)[Man(a1-2)Man(a1-6)]Man(a1-6)[Man(a1-2)Man(a1-2)Man(a1-3)]Man(b1-4)GlcNAc(b1-4)GlcNAc
Outline: as §1

[12] = biological target: Man(a1-2)Man(a1-3)[Man(a1-6)]Man(a1-6)[Man(a1-2)Man(a1-3)]Man(b1-4)GlcNAc(b1-4)GlcNAc
Outline: as §1

[13] = biological target: Man(a1-2)Man(a1-6)[Man(a1-3)]Man(a1-6)[Man(a1-2)Man(a1-2)Man(a1-3)]Man
Outline: as §1

[14] = biological target: Man(a1-2)Man(a1-6)[Man(a1-3)]Man(a1-6)[Man(a1-2)Man(a1-2)Man(a1-3)]Man(b1-4)GlcNAc(b1-4)GlcNAc
Outline: as §1

Man(a1-3)[Man(a1-6)]Man = biological target: Man(a1-3)[Man(a1-6)]Man
Outline: as §1

[15] = biological target: Man(a1-3)[Man(a1-6)]Man(a1-6)[Man(a1-2)Man(a1-3)]Man(b1-4)GlcNAc(b1-4)GlcNAc
Outline: as §1

[16] = biological target: Man(a1-3)[Man(a1-6)]Man(a1-6)[Man(a1-3)]Man
Outline: as §1

[17] = biological target: Man(a1-3)[Man(a1-6)]Man(a1-6)[Man(a1-3)]Man(b1-4)GlcNAc(b1-4)GlcNAc
Outline: as §1

[18] = biological target: Man(a1-3)[Man(a1-6)]Man(b1-4)GlcNAc(b1-4)GlcNAc
Outline: as §1

[19] = biological target: Man(a1-3)[Man(a1-6)]Man(b1-4)GlcNAc(b1-4)[Fuc(a1-6)]GlcNAc
Outline: as §1

Man(a1-6)Man = biological target: Man(a1-6)Man
Outline: as §1

Man(b1-4)GlcNAc = biological target: Man(b1-4)GlcNAc
Outline: as §1

MurNAc(b1-4)GlcNAc = biological target: MurNAc(b1-4)GlcNAc
Outline: as §1

Neu5Ac(a2-3)Gal = biological target: Neu5Ac(a2-3)Gal
Outline: as §1

[20] = biological target: Neu5Ac(a2-3)Gal(b1-3)GalNAc
Outline: as §1

[21] = biological target: Neu5Ac(a2-3)Gal(b1-3)GalNAc(b1-3)Gal(a1-4)Gal(b1-4)Glc
Outline: as §1

[22] = biological target: Neu5Ac(a2-3)Gal(b1-3)GalNAc(b1-4)Gal(b1-4)Glc
Outline: as §1

[23] = biological target: Neu5Ac(a2-3)Gal(b1-3)GalNAc(b1-4)[Neu5Ac(a2-3)]Gal(b1-4)Glc
Outline: as §1

[24] = biological target: Neu5Ac(a2-3)Gal(b1-3)GalNAc(b1-4)[Neu5Ac(a2-8)Neu5Ac(a2-3)]Gal(b1-4)Glc
Outline: as §1

[25] = biological target: Neu5Ac(a2-3)Gal(b1-3)GalNAc6S
Outline: as §1

[26] = biological target: Neu5Ac(a2-3)Gal(b1-3)GlcNAc
Outline: as §1

[27] = biological target: Neu5Ac(a2-3)Gal(b1-3)GlcNAc(b1-2)Man
Outline: as §1

[28] = biological target: Neu5Ac(a2-3)Gal(b1-3)GlcNAc(b1-2)Man(a1-3)[GlcNAc(b1-4)][Neu5Ac(a2-3)Gal(b1-3)GlcNAc(b1-2)Man(a1-6)]Man(b1-4)GlcNAc(b1-4)GlcNAc
Outline: as §1

[29] = biological target: Neu5Ac(a2-3)Gal(b1-3)GlcNAc(b1-2)Man(a1-3)[Neu5Ac(a2-3)Gal(b1-3)GlcNAc(b1-2)Man(a1-6)]Man(b1-4)GlcNAc(b1-4)GlcNAc
Outline: as §1

[30] = biological target: Neu5Ac(a2-3)Gal(b1-3)GlcNAc(b1-2)[Neu5Ac(a2-3)Gal(b1-3)GlcNAc(b1-4)]Man(a1-6)[Neu5Ac(a2-3)Gal(b1-3)GlcNAc(b1-2)Man(a1-3)]Man(b1-4)GlcNAc(b1-4)GlcNAc
Outline: as §1

[31] = biological target: Neu5Ac(a2-3)Gal(b1-3)GlcNAc(b1-3)Gal(b1-3)GlcNAc
Outline: as §1

[32] = biological target: Neu5Ac(a2-3)Gal(b1-3)GlcNAc(b1-3)Gal(b1-4)GlcNAc
Outline: as §1

[33] = biological target: Neu5Ac(a2-3)Gal(b1-3)GlcNAc(b1-3)GalNAc
Outline: as §1

B1: InvD YPIII (Yersinia pseudotuberculosis), B1JSC0 (protein)
chain: MIKYFSFFKKPEPIVGILPNRQSHHILPTHIRRVAWGTLLLQLFIPLSVSFSPAIAAMKASKADTMVSYSSTEPYVLGSGETVAMVAKKYGITVDELKKINIYRTFSRPFTALTTGDEIDIPRKASPFSVDNNKDNRLSVENTLAGHAVAGATALSNGDVAKSGERMVRSAASNEFNNSAQQWLSQFGTARVQLNINDDFHLDGSAADVLIPLYDNEKSILFTQLGARNKDSRNTVNMGAGVRTFQGNWMYGANTFFDNDLTGKNRRIGVGAEAWTDYLKLSANNYFGITDWHQSRDFIDYNERPANGYDLRAEAYLPSYPQLGGKAMYEKYRGDDVALFGKDNRQKNPHAITAGVNYTPIPLVTIGAEHRAGKGGQNDSNINFQLNYRLGETWQSHIDPSAVAASRTLAGSRYDLVERNNHIVLDYQKQNLVRLSLPDSLAGDPFSQLSVTAQVTATHGLERIDWQSAELMAAGGVLKQTSKNGLEITLPEYQMNRTGGNSYILNAIAYDTQGNASSQASMLITVNAQKINIANSTLVAVPINIEANNSDTSVVTLTLKDDNNIPVTGQDVTFLSPLGTLSAMTDSGNGVYTATLTAGTVSGTTAVSSNINGSALDMTPATVTLNGNSGELSITHSMLVAAPVNIEANGSDTSVVTLTLRDSNNNPVTGQTVTFAGTLGTLGAVTEGSSGVYTATLTAGIMVGTSSITASVNSTALGVTPATVTLNGDSGNLSTTNSTLVAAPVNIEANSSDTSVVTLTLRDNNNNPVTGQTVVFTSTLGTLGNVTEQASGVYTATLTAGTVSGVASLSVSVGGNALGVTPATVTLNGDSGNLSTTNSTLVAAPVNIEANSSDTSVVTLTLRDNNNNPVTGQTVNFAGTLGTLGTVSEGSSGVYTTTLTAGTVAGVASLSVNVGGNALGVTPATVTLNGNSGNLSATNSTLVAAPVNIEANSSDTSVVTLTLRDNNNNPVTGQTVAFTSTLGTLGNVTEQASGVYTATLTAGTVSGVASLSVSVNSNALGVTPATVTLNGDSGNLSTTNSTLVAAPVNIEANSSDTSVVTLTLRDNNNNPVTGQTVAFTSTLGTLGNVTEQASGLYTATLTAGTVSGVASLSVNVGGNALGVTPATVTLNGDSGNLSATNSTLVAAPVNIEANSSDTSVVTLTLRDNNNNPVTGQTVAFTSTLGTLGNVTEQASGLYTATLTAGTVSGVASLSVNVGGTALGVTPATVTLNGDSGNLSTTNSTLVAAPVNIEANSSDTSVVTLTLRDNNNNPVTGQTVAFTSTLGTLGNVTEQASGLYTATLTAGTVSGVASLSVSVNSTALGVTPATVTLNGDSGNLSTTNSTLVAAPVNIEANSSDTSVVTLTLRDNNNNPVTGQTVAFTSTLGTLGNVTEQASGVYTATLTAGTVAGVASLSVNVGGNALGVTPATVTLNGDSGNLSTTNSTLVAAPVNIEANSSDTSVVTLTLRDNNNNPVTGQTVAFTSTLGTLGNVTEQASGVYTATLTAGTVSGVASLSVSVGSSALGVTPATVTLNGDSGNLSTTNSTLVAAPVNIEANNSDTSVVTLTLRDNNNNPVTGQTVAFTSTLGTLGNVTEQASGVYTATLTAGTVSGVASLSVSVNSNALGVTPATVTLNGDSGNLSTTNSTLVAAPVNIEANSSDTSVVTLTLRDNNNNPVTGQTVVFTSTLGTLGNVTEQASGLYTATLTAGTVSGVASLSVSVGGNALGVTGNITLAPGALDAARSILAVNKPSINADDRIGSTITFTAQDAQGNAITGLDIAFMTDLENSQIMTLVDHNDGTYTANINGTQTGIANIAVQSSGATIAGLAATMVTITPGAWNTTQATPVMTVALPITTCQSSSGVYKRYYIGIVTHELYDNYGNEISGILTYNLGAGRYTTVTSQNSSVSGSNGLTRRSNSPVSHFILTSDAYTSQAACYAERIANVNVTITVTAITDDFKTSAVNKVFILGTGSN
glycan array binding signal (z-score) [1]: -0.337 | glycan array binding signal (z-score) [2]: -0.243 | glycan array binding signal (z-score) [3]: -0.34 | glycan array binding signal (z-score) [4]: 0.089 | glycan array binding signal (z-score) (GlcNAc(b1-6)GalNAc): -0.111 | glycan array binding signal (z-score) [5]: -0.103 | glycan array binding signal (z-score) (Kdn(a2-3)Gal(b1-3)GalNAc): -0.153 | glycan array binding signal (z-score) (Kdn(a2-3)Gal(b1-3)GlcNAc): -0.507 | glycan array binding signal (z-score) (Kdn(a2-3)Gal(b1-4)Glc): -0.427 | glycan array binding signal (z-score) (Kdn(a2-3)Gal(b1-4)GlcNAc): -0.307 | glycan array binding signal (z-score) [6]: -0.256 | glycan array binding signal (z-score) (Kdn(a2-6)Gal(b1-4)GlcNAc): -0.34 | glycan array binding signal (z-score) [7]: -0.209 | glycan array binding signal (z-score) [8]: -0.281 | glycan array binding signal (z-score) (Man(a1-2)Man(a1-3)Man): -0.354 | glycan array binding signal (z-score) [9]: -0.274 | glycan array binding signal (z-score) [10]: -0.118 | glycan array binding signal (z-score) [11]: -0.117 | glycan array binding signal (z-score) [12]: -0.241 | glycan array binding signal (z-score) [13]: -0.216 | glycan array binding signal (z-score) [14]: -0.299 | glycan array binding signal (z-score) (Man(a1-3)[Man(a1-6)]Man): -0.206 | glycan array binding signal (z-score) [15]: -0.333 | glycan array binding signal (z-score) [16]: -0.071 | glycan array binding signal (z-score) [17]: -0.223 | glycan array binding signal (z-score) [18]: -0.311 | glycan array binding signal (z-score) [19]: -0.056 | glycan array binding signal (z-score) (Man(a1-6)Man): 0.423 | glycan array binding signal (z-score) (Man(b1-4)GlcNAc): -0.245 | glycan array binding signal (z-score) (MurNAc(b1-4)GlcNAc): -0.127 | glycan array binding signal (z-score) (Neu5Ac(a2-3)Gal): -0.29 | glycan array binding signal (z-score) [20]: 0.015 | glycan array binding signal (z-score) [21]: -0.117 | glycan array binding signal (z-score) [22]: -0.278 | glycan array binding signal (z-score) [23]: -0.22 | glycan array binding signal (z-score) [24]: -0.165 | glycan array binding signal (z-score) [25]: -0.069 | glycan array binding signal (z-score) [26]: -0.282 | glycan array binding signal (z-score) [27]: -0.238 | glycan array binding signal (z-score) [28]: -0.366 | glycan array binding signal (z-score) [29]: 0.412 | glycan array binding signal (z-score) [30]: -0.409 | glycan array binding signal (z-score) [31]: -0.308 | glycan array binding signal (z-score) [32]: -0.309 | glycan array binding signal (z-score) [33]: -0.083
